Among the data in PubChem BioAssay (NCI) are TGI and GI50 values, retold here.

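Cells were grown in 96-well plates and exposed to each compound for 48 hours at five concentrations; endpoints were interpolated linearly between bracketing concentrations, or set to the highest concentration if not reached. GI50 marks 50% less growth. TGI: total growth inhibition.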 Peptide text beside a SMILES is read from it. * marks the point of attachment. Boc = CC(C)(C)OC(=O)*

In this assay the test system is NCI-H322M lung. The assay is described as follows: inhibition of tumour cell growth, NCI panel, 48 h.

`COc1ccc(Nc2nc3ccccc3nc2C(=O)O)cc1`: the TGI was > 100 µM.
For the molecule `CC(=O)O/C=C\OC1CCCC1`, the TGI is > 100 µM.
Turning to `COC(=O)CNC(=O)Nc1cc(N2C(=O)ON3C2C(C)(C)N(O)C3(C)C)ccc1C` (stereo not given), the TGI is > 100 µM.
On the same count and under the same terms, as for `Cc1ccc(S(=O)(=O)NCCSS(=O)(=O)c2ccc(C)cc2)cc1`, the figure is > 100 µM; as for `CC(C)(C)OC(=O)N/N=C(/N)c1ccccc1`, > 100 µM.
Take `CCN(CC)c1ccc2nc3c4ccccc4c(=NC(=O)c4ccccc4-c4c5ccc(N(CC)CC)cc5[o+]c5cc(N(CC)CC)ccc45)cc-3oc2c1`: the GI50 was 2.45 µM and the TGI came to 9.75 µM.
On to `COc1cc(/C=C/C(=O)c2ccc(Nc3nc(Nc4ccccc4)nc(Nc4ccc(Cl)cc4)n3)cc2)cc(OC)c1OC`, for which the GI50 is > 32.5 µM and the TGI is > 32.5 µM.
For the molecule `Cn1c2c(cc(-c3ccccc3)c1=O)COc1ccccc1-2`, the TGI was > 100 µM.
Still for that read-out and setting: the value for `CC(=O)NNc1nc(C)c(C(/C=C/c2ccc(NC(C)=O)cc2)=N/NS(=O)(=O)c2ccc(C)cc2)s1` was > 100 µM; that for `COc1nc2c(c(=O)n1C)NC(C(O)C(O)CO)C=N2` (stereo not given) was > 10 µM.
On the same count and under the same terms, as for `CCOc1ccc(NC(=O)CCC(=O)NN)cc1`, the figure is > 100 µM; as for `COc1c2ccoc2c(S(=O)(=O)Nc2ccc(Cl)cc2)c2oc(C)cc(=O)c12`, > 100 µM.
Take `CCOC(=O)CNC(=O)C(CSC(=O)N(C)O)NC(=O)CCC(N)C(=O)O` (stereo not given): the GI50 is > 2000 µM and the TGI is > 2000 µM.
`O=C(O)c1cc(N(Cc2ccccc2O)Cc2cc(O)ccc2O)ccc1O`: the TGI is > 100 µM.
The same measure, in the same setting: as for `C1=c2ccccc2=C2C(=C(c3ccccc3)C(c3ccccc3)=NN2c2ccccc2)S1`, the figure is > 100 µM; as for `Cc1cc(=O)[nH]c(CNC(=O)Cc2ccccc2)n1`, > 100 µM.
Regarding `CC[C@H](C)[C@H](NC(=O)C12CC(NC(C)=O)(C1)C2)C(=O)N(C)[C@H](C[C@@H](OC(C)=O)c1nc(C(=O)N[C@@H](Cc2ccccc2)C[C@H](C)C(=O)OC)cs1)C(C)C`, the GI50 is 0.888 µM and the TGI was > 16.7 µM.
On to `O=C1C=C(Nc2ccccc2C(=O)CC(=O)C(=O)Nc2ccc(Cl)c(Cl)c2)c2ccccc2C1=O`, for which the TGI is > 100 µM.
`CCOc1cc(NC(C)=O)ccc1C(=O)NN1C(=O)CSC1c1ccc(O)c(OC)c1` (stereo not given): the TGI was > 100 µM.
Same read-out and setting: as for `O=C(NC/C(Cl)=C/Cl)Nc1cccc2c1CCCC2`, the figure is > 100 µM; as for `NC(=O)CCC(NC(=O)C(F)(F)F)C(=O)O` (stereo not given), > 100 µM.
The same measure, in the same setting: the value for `CC12OC3CC(O1)C1(C=O)C4CCC5(C)C(c6ccc(=O)oc6)CCC5(O)C4CCC1(C3)O2` (stereo not given) was 2.12 µM.
The same measure, in the same setting: as for `CO[C@H](c1ccccc1)[C@H](C)N(C)c1ccc2ccccc2c1C1=NC(C)(C)CO1`, the figure is 52.7 µM.
As to `COc1cccc2c1C(=O)c1c(O)c3c(c(O)c1C2=O)C[C@@](O)(/C(C)=N/NC(=O)c1ccc(Cl)c(Cl)c1)C[C@@H]3OC1CC(N)C(O)C(C)O1` (stereo not given in full), the TGI is 2.29 µM.
On the same count and under the same terms, as for `CCCc1ccc(OCC(=O)N/N=C/c2c(-c3ccccc3)[nH]c3ccccc23)cc1`, the figure is > 100 µM.
Consider `CCS/C(Nc1ccccc1)=C(\C#N)C(=O)N/N=C/c1ccc(Cl)cc1Cl`, for which the GI50 is 6.87 µM and the TGI is > 100 µM.
For the molecule `COc1ccc2c(c1)CC[C@@H]1[C@@H]2CC[C@]2(C)[C@@H](O)/C(=C/c3ccncc3)C[C@@H]12`, the TGI turned out to be 35.8 µM.
`COc1cnc2c(c1)C(=O)c1c-2n(CCCN2CCN(CCO)CC2)c(=O)c2cc([N+](=O)[O-])ccc12`: the GI50 was 2.38 µM and the TGI was 6.07 µM.
Regarding `Cc1cc2c(=O)[nH]nc(N)c2c(N)n1`, the TGI was > 100 µM.
Regarding `O=C(O)Cc1ccc2c(c1O)C(=O)c1c(ccc(CC(=O)O)c1O)C2=O`, the TGI was > 100 µM.
Same read-out and setting: the value for `CCOC(=O)C1CC/C(=C(/C#N)C(=O)OC)N1` (stereo not given) was > 100 µM.
As to `O=P1(O)c2ccccc2CS(=O)(=O)Cc2ccccc21`, the TGI was > 100 µM.
Still for that read-out and setting: as for `CC1=NN(c2ccccc2)C(=O)C1N=Nc1ccc(Br)c(C)c1` (stereo not given), the figure is > 100 µM; as for `CP(C)C.[Ag][I]`, > 100 µM; as for `O=C(CCO)OCCCCCC/C=C\CCCCCC/C=C\CCCCCCCCOC(=O)CCO`, 30.9 µM.
The same measure, in the same setting: as for `NCCc1ccc2c(c1)C(=O)c1c(O)ccc(O)c1C2=O`, the figure is > 100 µM; as for `Oc1[nH]c2ccccc2c1N=NC(=S)N1CCCC1`, 47.9 µM; as for `CCOC(=O)c1cn2c([nH]c3ccccc32)c(C#N)c1=O`, > 100 µM.
In the case of `CC(=O)N[C@@H](Cc1ccc(OP(=O)(O)O)cc1)C(=O)N[C@H]1CCC(=O)N2CCC[C@@H](C(=O)NCc3ccc(O)cc3)N2C1=O`, the GI50 was > 25 µM and the TGI was > 25 µM.
On to `Cc1cc(=O)[nH]c2c3c(ccc12)OC(C)(C)C=C3`, for which the TGI is > 100 µM.
Take `FC(F)(F)C1(C(F)(F)F)C2CCC3(CC(F)(F)C(F)(F)S3)C1C2` (stereo not given): the TGI was > 100 µM.
Consider `CCOC(=O)C1(Cc2ccc3ccccc3c2)CCCCCN1` (stereo not given), for which the TGI is > 100 µM.
Consider `C=C1C(=O)OC2CC3(C)OC3C3OC3C3=CC(OC3=O)C12` (stereo not given), for which the GI50 was 24.5 µM and the TGI amounted to 66.4 µM.
Turning to `ClCC1(CCl)COC1`, the TGI was > 100 µM.
As for `C/C(=N\Nc1cccc(Cl)n1)c1ccccn1`, the GI50 was 0.479 µM and the TGI is > 100 µM.
On to `C[N+]1=c2c3cccc4cccc(c(=O)n2CCC1)c43`, for which the TGI stood at 70.1 µM.
Take `O=C(CC1(O)C(=O)Nc2c(Cl)ccc(Cl)c21)c1ccc(C2CC2)cc1` (stereo not given): the GI50 was 2.18 µM and the TGI worked out at 19.6 µM.
As for `CCc1ccccc1-n1c(N)c(C#N)c(-c2ccc(OC)c(OC)c2)c(C#N)c1=O`, the GI50 was 23.4 µM and the TGI turned out to be 69.2 µM.
On the same counts, the results for `Cc1c(N2C(=O)/C(=C\c3ccc(N(C)C)cc3)N=C2c2ccccc2)c(=O)n(-c2ccccc2)n1C` are 47.5 µM and > 100 µM.
On the same counts, the results for `N#CC[C@H](C1CCCC1)n1cc(-c2ncnc3[nH]ccc23)cn1` are 23.2 µM and > 100 µM.
Consider `OC1(c2ccc3ccccc3c2)c2ccc3ccccc3c2C2=NCCN21` (stereo not given), for which the TGI was > 100 µM.
Molecule `CCOC(=O)C(CC(C)C)NC(=O)C(Cc1ccccc1)NC(=O)CNC(=O)OC(C)(C)C` (stereo not drawn) (Boc-Gly-Phe-Leu-OEt; configuration not given here) had a TGI of 57.7 µM.
The same measure, in the same setting: as for `CCCCCn1cnc2c1S(=O)(=O)N(C)C(NC(=O)c1ccccc1)=N2`, the figure is > 100 µM.
Same read-out and setting: as for `CCOC(=O)CCc1c(C)[nH]c2c(C)c3c([nH]c4ccc(Cl)cc43)c(C)c2c1=O`, the figure is > 100 µM; as for `O=[N+]([O-])c1cc(/C=N/NS(=O)(=O)c2ccc(F)cc2)c(O)c([N+](=O)[O-])c1`, > 100 µM.
For `CO[C@]12C[C@H](CNC(=O)c3cc(Br)c(Br)[nH]3)O[C@H]1NC(=O)N2`, the TGI was > 100 µM.
As for `CC(C)N(C[C@H]1O[C@@H](n2cnc3c(N)ncnc32)[C@H](O)[C@@H]1O)C1CC(CCc2nc3ccc(C(C)(C)C)cc3[nH]2)C1` (stereo not given in full), the GI50 was > 100 µM and the TGI was > 100 µM.
As for `c1ccc2c3nnc(c2c1)SCCSCCCSCCS3`, the TGI is > 100 µM.
The same measure, in the same setting: as for `O=C1CCC(=O)C(C(=O)CCC(=O)Nc2cccc(Cl)c2)C1` (stereo not given), the figure is > 100 µM; as for `O=C1c2cccc3cc([N+](=O)[O-])cc(c23)C(=O)N1O`, 99.8 µM.
The same measure, in the same setting: as for `COc1cccc(/C=C2\C(=O)N(C(=O)Cc3ccccc3)N=C2C)c1`, the figure is > 100 µM.
As for `CC[O-].CC[O-].O=C([CH-]C(=O)c1ccccc1)c1ccccc1.O=C([CH-]C(=O)c1ccccc1)c1ccccc1.[Ti+4]`, the GI50 is > 100 µM and the TGI is > 100 µM.
On to `CN(NC(=O)CC(=O)NN(C)C(=S)c1ccc(Cl)cc1)C(=S)c1ccc(Cl)cc1`, for which the GI50 was 19.5 µM and the TGI is > 100 µM.
The like results for `O=C(/C=C/c1cccc(B(O)O)c1)c1cccc(B(O)O)c1` were, in that order, 2 µM and 6.86 µM.
Turning to `COP(=O)(C(/C=C/c1ccccc1)OC(C)=O)[C@@H]1CCCC[C@H]1N(CC(C)(C)C)C(C)=O` (stereo not given in full), the TGI was > 100 µM.
With `CC1(C)C(=O)C2(C#N)CCC1C2` (stereo not given), the TGI was > 100 µM.
With `CN(CC#N)C(=O)Cc1ccc([N+](=O)[O-])cc1`, the TGI was > 10 µM.
As to `COc1cc(C2C(Cl)C(=O)N2NC(=O)Cc2ccccc2)ccc1O` (stereo not given), the TGI was > 100 µM.
As to `CCC[CH2][Sn]1([CH2]CCC)[O]C(=O)c2cc(C)ccc2[O]1`, the GI50 is 1.51 µM and the TGI came to 2.85 µM.
For `NC(N)=NS(=O)(=O)c1ccc(NNc2c3ccccc3nc3c(C(=O)Nc4ccc(S(N)(=O)=O)cc4)cccc23)cc1`, the TGI is > 100 µM.
Same read-out and setting: the value for `c1cnc2c(c1)Nc1cnncc1S2` was > 100 µM.
The same measure, in the same setting: the value for `O=C1/C(=C\c2c(-c3ccccc3)nn(-c3ccccc3)c2O)C(c2ccccc2)=NN1c1ccccc1` was > 100 µM; that for `O=c1cc(-c2nc3ccccc3[nH]2)[nH]c2nc(-c3nc4ccccc4[nH]3)cc(-c3ccc(Cl)cc3)c12` was > 100 µM.
As for `CC(C)[O-].CC(C)[O-].[O-]c1cccc2cccnc12.[O-]c1cccc2cccnc12.[Ti+4]`, the GI50 is 38 µM and the TGI was > 100 µM.
As to `O=c1c2ncn(CCCl)c2n(-c2ccccc2)c(=S)n1-c1ccccc1`, the TGI is > 100 µM.
On to `Cc1cc(Br)cc(C)c1NC(=O)C(=O)C1C(=O)C(CC2C(=O)c3ccccc3C2=O)C(=O)CC1(C)C` (stereo not given), for which the TGI was > 100 µM.
Turning to `CCCCCCCCCC(=O)CC(=O)c1c(O)cc(O)cc1O`, the TGI is > 75 µM.
For `Cc1nc(N)sc1C(=O)/C=C/c1ccc([N+](=O)[O-])cc1`, the TGI was > 100 µM.
On the same count and under the same terms, the value for `CC[N+](CC)(CC)/C(=N/S(=O)(=O)c1cc(C)c(Cl)cc1S)[N-]S(=O)(=O)c1ccc(Cl)cc1` was > 100 µM.
On to `C=C=[CH][Sn]([c]1ccccc1)([c]1ccccc1)[c]1ccccc1`, for which the GI50 is 1.7 µM and the TGI is 3.27 µM.
Turning to `Cc1sc(/N=C2/NC(=O)CS2)nc1-c1nc(/N=C2/NC(=O)CS2)sc1C`, the GI50 is 30.9 µM and the TGI is > 50 µM.
Turning to `Cc1cc(C)c(NS(=O)c2cccc([N+](=O)[O-])c2)c(C)c1` (stereo not given), the TGI is > 100 µM.
The same measure, in the same setting: as for `CCCCOc1ccc(S(=O)(=O)/N=C(\NN)Nc2ccc(Cl)cc2)cc1`, the figure is > 100 µM.
In the case of `CCOC(=O)CCC(NC(=O)c1ccc(Oc2nc3ccccc3nc2C(=O)OCC)cc1)C(=O)OCC` (stereo not given), the TGI is > 100 µM.
